Assay [1] addresses T1, GST-Cep57 (195–500 amino acids) (human) (UniProt Q86XR8).
T1 sequence: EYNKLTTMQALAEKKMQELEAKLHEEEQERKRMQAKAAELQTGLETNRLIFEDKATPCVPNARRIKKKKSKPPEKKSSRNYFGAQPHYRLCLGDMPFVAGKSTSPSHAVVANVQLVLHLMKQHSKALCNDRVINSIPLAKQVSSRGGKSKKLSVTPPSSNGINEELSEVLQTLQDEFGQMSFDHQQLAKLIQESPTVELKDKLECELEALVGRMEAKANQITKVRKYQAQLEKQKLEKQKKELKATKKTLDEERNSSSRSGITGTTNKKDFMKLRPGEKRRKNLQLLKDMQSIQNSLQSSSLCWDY
Nature of the assay: pull-down; GST-tagged Cep57 fragments on Glutathione Sepharose 4B beads incubated with lysates of HEK293T cells overexpressing the partner, 4 h at 4 °C; western blotting; only the target purified. For orientation: In western blotting, separated proteins are transferred to a membrane and probed.

For assay [2], the target named is T2, Cep57 (endogenous) (human (endogenous in HeLa)) (UniProt Q86XR8).
T2 sequence: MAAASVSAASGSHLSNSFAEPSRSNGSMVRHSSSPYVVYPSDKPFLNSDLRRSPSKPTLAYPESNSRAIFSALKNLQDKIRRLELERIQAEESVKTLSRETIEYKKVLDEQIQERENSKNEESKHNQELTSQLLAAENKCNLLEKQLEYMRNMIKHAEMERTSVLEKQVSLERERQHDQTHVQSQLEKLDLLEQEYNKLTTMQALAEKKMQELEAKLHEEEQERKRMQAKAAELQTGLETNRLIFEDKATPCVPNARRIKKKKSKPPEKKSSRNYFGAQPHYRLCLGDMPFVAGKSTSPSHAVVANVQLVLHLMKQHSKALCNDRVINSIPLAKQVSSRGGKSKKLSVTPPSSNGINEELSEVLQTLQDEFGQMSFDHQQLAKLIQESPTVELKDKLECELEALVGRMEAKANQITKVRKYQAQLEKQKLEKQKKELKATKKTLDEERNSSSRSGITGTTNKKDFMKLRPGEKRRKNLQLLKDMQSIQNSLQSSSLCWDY
Description: co-IP; endogenous proteins; mitotic HeLa cells arrested by nocodazole; IP with anti-Cep57 antibody, IgG as negative control.

For assay [3], the target named is T3, Cep57, yeast two-hybrid fusion (human) (UniProt Q86XR8).
T3 sequence: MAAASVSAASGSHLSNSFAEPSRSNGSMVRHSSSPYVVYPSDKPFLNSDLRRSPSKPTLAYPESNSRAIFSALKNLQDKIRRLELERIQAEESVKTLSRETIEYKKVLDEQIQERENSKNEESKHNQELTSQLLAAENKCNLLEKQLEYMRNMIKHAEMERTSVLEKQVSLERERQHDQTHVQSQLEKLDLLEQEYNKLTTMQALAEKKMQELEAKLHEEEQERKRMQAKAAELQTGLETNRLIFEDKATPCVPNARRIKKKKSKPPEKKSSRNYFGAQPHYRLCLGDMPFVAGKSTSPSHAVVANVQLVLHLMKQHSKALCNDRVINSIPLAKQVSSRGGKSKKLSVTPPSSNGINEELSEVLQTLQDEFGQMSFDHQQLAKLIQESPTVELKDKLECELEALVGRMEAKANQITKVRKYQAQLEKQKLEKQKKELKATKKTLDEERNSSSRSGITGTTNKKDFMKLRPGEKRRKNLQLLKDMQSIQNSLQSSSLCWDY
Description: two-hybrid; Matchmaker system; bait vector pGBKT7 and prey vector pGADT7 co-transformed into AH109 yeast; growth on quadruple-selective medium (Trp-, Leu-, His-, Ade-), 2-5 days at 30 °C.

The target of assay [4] is T4, Flag-Mad1 (176–350 amino acids) (human) (UniProt Q9Y6D9).
T4 sequence: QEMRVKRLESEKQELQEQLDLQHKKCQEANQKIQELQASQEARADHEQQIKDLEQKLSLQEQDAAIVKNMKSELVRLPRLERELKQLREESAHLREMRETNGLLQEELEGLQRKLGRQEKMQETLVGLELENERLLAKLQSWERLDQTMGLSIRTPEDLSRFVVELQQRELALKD
Nature of the assay: co-IP; lysates of co-transfected HEK293T cells (150 mM NaCl, 1 mM MgCl2, 50 mM Hepes pH 7.4, 1 mM EGTA, 0.5% Triton X-100); antibody 4 h at 4 °C, protein A-Sepharose 2 h; western blotting.

The target of assay [5] is T5, Flag-Mad1 (1–530 amino acids) (human) (UniProt Q9Y6D9).
T5 sequence: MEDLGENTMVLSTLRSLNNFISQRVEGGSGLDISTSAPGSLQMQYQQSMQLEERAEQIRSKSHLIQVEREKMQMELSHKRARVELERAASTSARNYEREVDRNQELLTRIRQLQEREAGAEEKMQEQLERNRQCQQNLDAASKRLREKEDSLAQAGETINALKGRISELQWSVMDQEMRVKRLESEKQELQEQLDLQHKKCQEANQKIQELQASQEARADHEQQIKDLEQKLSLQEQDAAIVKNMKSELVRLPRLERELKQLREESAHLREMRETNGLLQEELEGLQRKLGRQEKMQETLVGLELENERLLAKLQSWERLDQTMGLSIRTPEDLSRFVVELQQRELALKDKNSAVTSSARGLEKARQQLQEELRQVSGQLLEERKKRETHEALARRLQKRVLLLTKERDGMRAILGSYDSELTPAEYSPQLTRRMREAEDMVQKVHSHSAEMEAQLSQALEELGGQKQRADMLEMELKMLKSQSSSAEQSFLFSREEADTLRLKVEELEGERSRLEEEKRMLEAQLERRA
The description is as above.

Assay [6] addresses T6, Flag-Mad1 (1–175 amino acids) (human) (UniProt Q9Y6D9).
T6 sequence: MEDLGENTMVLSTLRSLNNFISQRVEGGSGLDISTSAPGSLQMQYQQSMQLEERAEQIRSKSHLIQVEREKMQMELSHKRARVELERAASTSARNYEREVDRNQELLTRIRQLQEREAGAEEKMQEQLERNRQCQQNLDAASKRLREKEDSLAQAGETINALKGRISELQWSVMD
The description is as above.

In assay [7] the target is T7, Flag-Mad1 (351–530 amino acids) (human) (UniProt Q9Y6D9).
T7 sequence: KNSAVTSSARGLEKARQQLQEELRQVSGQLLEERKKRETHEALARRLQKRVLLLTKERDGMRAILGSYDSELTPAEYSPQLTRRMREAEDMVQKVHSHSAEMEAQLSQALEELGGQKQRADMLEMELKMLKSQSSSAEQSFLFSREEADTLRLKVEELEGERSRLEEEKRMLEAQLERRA
Described as above.

These are yes or no findings as the source states them, for the method shown. For some of these results: Binding seen in cells or lysates may run through a third protein. Some binding calls cover weakened binding; strength is not graded here. For some of these results: Tags and fused reporters may be left off the sequences shown.

B1: Mad1-GFP (protein, UniProt Q9Y6D9 1-718)
chain: MEDLGENTMVLSTLRSLNNFISQRVEGGSGLDISTSAPGSLQMQYQQSMQLEERAEQIRSKSHLIQVEREKMQMELSHKRARVELERAASTSARNYEREVDRNQELLTRIRQLQEREAGAEEKMQEQLERNRQCQQNLDAASKRLREKEDSLAQAGETINALKGRISELQWSVMDQEMRVKRLESEKQELQEQLDLQHKKCQEANQKIQELQASQEARADHEQQIKDLEQKLSLQEQDAAIVKNMKSELVRLPRLERELKQLREESAHLREMRETNGLLQEELEGLQRKLGRQEKMQETLVGLELENERLLAKLQSWERLDQTMGLSIRTPEDLSRFVVELQQRELALKDKNSAVTSSARGLEKARQQLQEELRQVSGQLLEERKKRETHEALARRLQKRVLLLTKERDGMRAILGSYDSELTPAEYSPQLTRRMREAEDMVQKVHSHSAEMEAQLSQALEELGGQKQRADMLEMELKMLKSQSSSAEQSFLFSREEADTLRLKVEELEGERSRLEEEKRMLEAQLERRALQGDYDQSRTKVLHMSLNPTSVARQRLREDHSQLQAECERLRGLLRAMERGGTVPADLEAAAASLPSSKEVAELKKQVESAELKNQRLKEVFQTKIQEFRKACYTLTGYQIDITTENQYRLTSLYAEHPGDCLIFKATSPSGSKMQLLETEFSHTVGELIEVHLRRQDSIPAFLSSLTLELFSRQTVA
As to B1, in assay [1], the binding result is “binds”.

B2: Mad1 (endogenous) (protein, UniProt Q9Y6D9 1-718)
chain: MEDLGENTMVLSTLRSLNNFISQRVEGGSGLDISTSAPGSLQMQYQQSMQLEERAEQIRSKSHLIQVEREKMQMELSHKRARVELERAASTSARNYEREVDRNQELLTRIRQLQEREAGAEEKMQEQLERNRQCQQNLDAASKRLREKEDSLAQAGETINALKGRISELQWSVMDQEMRVKRLESEKQELQEQLDLQHKKCQEANQKIQELQASQEARADHEQQIKDLEQKLSLQEQDAAIVKNMKSELVRLPRLERELKQLREESAHLREMRETNGLLQEELEGLQRKLGRQEKMQETLVGLELENERLLAKLQSWERLDQTMGLSIRTPEDLSRFVVELQQRELALKDKNSAVTSSARGLEKARQQLQEELRQVSGQLLEERKKRETHEALARRLQKRVLLLTKERDGMRAILGSYDSELTPAEYSPQLTRRMREAEDMVQKVHSHSAEMEAQLSQALEELGGQKQRADMLEMELKMLKSQSSSAEQSFLFSREEADTLRLKVEELEGERSRLEEEKRMLEAQLERRALQGDYDQSRTKVLHMSLNPTSVARQRLREDHSQLQAECERLRGLLRAMERGGTVPADLEAAAASLPSSKEVAELKKQVESAELKNQRLKEVFQTKIQEFRKACYTLTGYQIDITTENQYRLTSLYAEHPGDCLIFKATSPSGSKMQLLETEFSHTVGELIEVHLRRQDSIPAFLSSLTLELFSRQTVA
On to B2, for which, in assay [2], the binding result is on record as “binds”.

B3: Mad1, yeast two-hybrid fusion (protein, UniProt Q9Y6D9 1-718)
chain: MEDLGENTMVLSTLRSLNNFISQRVEGGSGLDISTSAPGSLQMQYQQSMQLEERAEQIRSKSHLIQVEREKMQMELSHKRARVELERAASTSARNYEREVDRNQELLTRIRQLQEREAGAEEKMQEQLERNRQCQQNLDAASKRLREKEDSLAQAGETINALKGRISELQWSVMDQEMRVKRLESEKQELQEQLDLQHKKCQEANQKIQELQASQEARADHEQQIKDLEQKLSLQEQDAAIVKNMKSELVRLPRLERELKQLREESAHLREMRETNGLLQEELEGLQRKLGRQEKMQETLVGLELENERLLAKLQSWERLDQTMGLSIRTPEDLSRFVVELQQRELALKDKNSAVTSSARGLEKARQQLQEELRQVSGQLLEERKKRETHEALARRLQKRVLLLTKERDGMRAILGSYDSELTPAEYSPQLTRRMREAEDMVQKVHSHSAEMEAQLSQALEELGGQKQRADMLEMELKMLKSQSSSAEQSFLFSREEADTLRLKVEELEGERSRLEEEKRMLEAQLERRALQGDYDQSRTKVLHMSLNPTSVARQRLREDHSQLQAECERLRGLLRAMERGGTVPADLEAAAASLPSSKEVAELKKQVESAELKNQRLKEVFQTKIQEFRKACYTLTGYQIDITTENQYRLTSLYAEHPGDCLIFKATSPSGSKMQLLETEFSHTVGELIEVHLRRQDSIPAFLSSLTLELFSRQTVA
With B3, in assay [3], the binding entry is “binds”.

B4: GFP-Cep57 (protein, UniProt Q86XR8 1-500)
chain: MAAASVSAASGSHLSNSFAEPSRSNGSMVRHSSSPYVVYPSDKPFLNSDLRRSPSKPTLAYPESNSRAIFSALKNLQDKIRRLELERIQAEESVKTLSRETIEYKKVLDEQIQERENSKNEESKHNQELTSQLLAAENKCNLLEKQLEYMRNMIKHAEMERTSVLEKQVSLERERQHDQTHVQSQLEKLDLLEQEYNKLTTMQALAEKKMQELEAKLHEEEQERKRMQAKAAELQTGLETNRLIFEDKATPCVPNARRIKKKKSKPPEKKSSRNYFGAQPHYRLCLGDMPFVAGKSTSPSHAVVANVQLVLHLMKQHSKALCNDRVINSIPLAKQVSSRGGKSKKLSVTPPSSNGINEELSEVLQTLQDEFGQMSFDHQQLAKLIQESPTVELKDKLECELEALVGRMEAKANQITKVRKYQAQLEKQKLEKQKKELKATKKTLDEERNSSSRSGITGTTNKKDFMKLRPGEKRRKNLQLLKDMQSIQNSLQSSSLCWDY
Take B4: the binding entry in assay [4] was “binds weakly”; in assay [5] it was “binds”; in assay [6], “binds weakly”; in assay [7] it was “binds weakly”.
